These are yes or no findings as the source states them, for the method shown. For part of these data: Binding seen in cells or lysates may run through a third protein. Some entries that bind do so weakly or less than the wild type. For part of these data: Tags and fused reporters may be left off the sequences shown.
Tests used:
[1] = biological target: T1, dysbindin-1C (yeast two-hybrid fusion) (UniProt Q91WZ8); experiment: two-hybrid; yeast two-hybrid interaction assay (Supplementary Fig. 6D)
T1 sequence: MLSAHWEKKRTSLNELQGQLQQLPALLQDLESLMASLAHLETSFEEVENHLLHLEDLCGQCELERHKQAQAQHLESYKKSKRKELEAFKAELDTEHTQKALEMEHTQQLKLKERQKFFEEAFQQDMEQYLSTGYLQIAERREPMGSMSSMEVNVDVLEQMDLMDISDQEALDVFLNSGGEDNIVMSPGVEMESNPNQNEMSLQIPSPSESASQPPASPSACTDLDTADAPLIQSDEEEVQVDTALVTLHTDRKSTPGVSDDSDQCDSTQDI

Sequences of proteins named here, by UniProt entry; tags and fusion partners are left off.
UniProt O00429: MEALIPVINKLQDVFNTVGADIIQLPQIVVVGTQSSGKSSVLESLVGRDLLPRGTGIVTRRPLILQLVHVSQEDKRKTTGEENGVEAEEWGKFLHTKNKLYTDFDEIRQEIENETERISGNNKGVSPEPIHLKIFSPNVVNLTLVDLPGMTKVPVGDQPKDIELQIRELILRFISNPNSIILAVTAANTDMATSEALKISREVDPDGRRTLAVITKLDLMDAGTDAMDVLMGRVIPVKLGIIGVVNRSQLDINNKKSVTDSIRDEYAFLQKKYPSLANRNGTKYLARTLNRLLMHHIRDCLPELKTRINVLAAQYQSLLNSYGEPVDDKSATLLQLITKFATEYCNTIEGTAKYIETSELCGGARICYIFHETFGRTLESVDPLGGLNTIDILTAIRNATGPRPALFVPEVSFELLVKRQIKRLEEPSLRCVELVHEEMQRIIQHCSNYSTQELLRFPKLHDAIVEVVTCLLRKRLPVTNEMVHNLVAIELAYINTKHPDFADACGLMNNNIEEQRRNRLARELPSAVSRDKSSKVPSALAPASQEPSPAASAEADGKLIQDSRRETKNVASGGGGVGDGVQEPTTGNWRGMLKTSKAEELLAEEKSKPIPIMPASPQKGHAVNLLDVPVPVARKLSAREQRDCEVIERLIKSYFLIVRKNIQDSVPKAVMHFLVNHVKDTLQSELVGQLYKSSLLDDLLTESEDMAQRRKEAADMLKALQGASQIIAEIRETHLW
UniProt O35303: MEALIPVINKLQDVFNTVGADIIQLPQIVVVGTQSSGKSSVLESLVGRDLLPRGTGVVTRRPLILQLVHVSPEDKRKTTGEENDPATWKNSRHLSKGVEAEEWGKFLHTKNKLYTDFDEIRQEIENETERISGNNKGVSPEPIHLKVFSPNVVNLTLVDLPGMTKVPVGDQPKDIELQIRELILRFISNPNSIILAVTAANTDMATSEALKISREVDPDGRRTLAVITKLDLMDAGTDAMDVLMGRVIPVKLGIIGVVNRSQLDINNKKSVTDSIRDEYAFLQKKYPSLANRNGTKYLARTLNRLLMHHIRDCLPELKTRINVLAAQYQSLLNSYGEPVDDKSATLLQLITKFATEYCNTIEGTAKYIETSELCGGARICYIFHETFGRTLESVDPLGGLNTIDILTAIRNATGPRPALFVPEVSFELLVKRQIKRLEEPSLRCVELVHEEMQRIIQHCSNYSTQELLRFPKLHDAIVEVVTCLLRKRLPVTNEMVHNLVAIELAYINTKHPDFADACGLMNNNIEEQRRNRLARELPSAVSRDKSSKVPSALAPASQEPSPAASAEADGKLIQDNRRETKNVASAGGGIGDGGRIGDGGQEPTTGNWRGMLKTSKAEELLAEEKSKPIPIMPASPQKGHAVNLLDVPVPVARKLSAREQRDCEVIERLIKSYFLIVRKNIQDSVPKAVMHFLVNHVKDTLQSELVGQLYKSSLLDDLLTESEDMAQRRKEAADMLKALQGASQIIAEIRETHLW
UniProt Q8K1M6: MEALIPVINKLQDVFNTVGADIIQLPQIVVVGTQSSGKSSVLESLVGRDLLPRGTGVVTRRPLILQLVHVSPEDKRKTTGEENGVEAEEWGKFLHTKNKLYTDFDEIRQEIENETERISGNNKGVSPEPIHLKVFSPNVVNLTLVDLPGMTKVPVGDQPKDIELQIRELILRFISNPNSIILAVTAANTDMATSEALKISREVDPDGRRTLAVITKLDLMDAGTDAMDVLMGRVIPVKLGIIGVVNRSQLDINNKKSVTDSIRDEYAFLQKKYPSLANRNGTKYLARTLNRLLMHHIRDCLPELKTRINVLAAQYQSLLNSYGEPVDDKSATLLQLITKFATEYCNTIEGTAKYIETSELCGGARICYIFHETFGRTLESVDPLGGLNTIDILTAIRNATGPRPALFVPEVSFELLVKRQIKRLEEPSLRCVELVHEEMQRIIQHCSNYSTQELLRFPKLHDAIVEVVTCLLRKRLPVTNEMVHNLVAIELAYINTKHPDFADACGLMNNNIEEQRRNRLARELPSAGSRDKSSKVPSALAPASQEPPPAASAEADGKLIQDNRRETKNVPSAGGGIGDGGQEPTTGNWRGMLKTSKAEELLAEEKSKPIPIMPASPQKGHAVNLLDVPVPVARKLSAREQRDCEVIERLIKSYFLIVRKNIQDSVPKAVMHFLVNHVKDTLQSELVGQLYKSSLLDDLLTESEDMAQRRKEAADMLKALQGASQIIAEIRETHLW
UniProt Q9NQG6: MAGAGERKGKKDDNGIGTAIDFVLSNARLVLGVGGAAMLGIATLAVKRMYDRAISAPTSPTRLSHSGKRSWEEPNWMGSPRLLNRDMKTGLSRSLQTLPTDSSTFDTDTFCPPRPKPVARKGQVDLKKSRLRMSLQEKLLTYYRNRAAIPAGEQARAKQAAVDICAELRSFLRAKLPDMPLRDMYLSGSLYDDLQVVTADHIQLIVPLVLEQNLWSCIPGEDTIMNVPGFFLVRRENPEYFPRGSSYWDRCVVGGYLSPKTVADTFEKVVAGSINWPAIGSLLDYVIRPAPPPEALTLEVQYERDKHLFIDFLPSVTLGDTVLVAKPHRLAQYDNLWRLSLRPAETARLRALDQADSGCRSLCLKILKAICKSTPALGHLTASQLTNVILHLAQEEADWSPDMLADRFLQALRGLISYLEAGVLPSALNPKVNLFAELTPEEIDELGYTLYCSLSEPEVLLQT

[2] = biological target: Drp1 (yeast two-hybrid fusion) (UniProt O00429); experiment: as above
HA-tagged dysbindin-1C [3] = biological target: T2, HA-tagged dysbindin-1C (UniProt Q91WZ8); experiment: co-IP; HEK-293 cells transfected with designated plasmids, with the N-terminal region of dysbindin-1A; immunoprecipitation with the anti-HA antibody (Fig. 4K)
T2 sequence: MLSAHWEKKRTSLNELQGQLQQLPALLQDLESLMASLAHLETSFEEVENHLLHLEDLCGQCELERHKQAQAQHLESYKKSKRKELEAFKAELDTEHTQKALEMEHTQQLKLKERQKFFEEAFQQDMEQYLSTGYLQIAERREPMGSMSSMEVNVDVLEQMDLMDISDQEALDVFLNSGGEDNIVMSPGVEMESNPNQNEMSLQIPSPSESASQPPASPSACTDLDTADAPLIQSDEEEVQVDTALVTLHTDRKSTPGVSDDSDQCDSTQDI

HA-tagged dysbindin-1A = biological target: T3, HA-tagged dysbindin-1A (UniProt Q91WZ8); experiment: co-IP; HEK-293 cells transfected with YFP-Drp1 along with HA-tagged dysbindin-1C or -1A; immunoprecipitation with an anti-HA antibody 2 days later; blot for Drp1 (Fig. 4G)
T3 sequence: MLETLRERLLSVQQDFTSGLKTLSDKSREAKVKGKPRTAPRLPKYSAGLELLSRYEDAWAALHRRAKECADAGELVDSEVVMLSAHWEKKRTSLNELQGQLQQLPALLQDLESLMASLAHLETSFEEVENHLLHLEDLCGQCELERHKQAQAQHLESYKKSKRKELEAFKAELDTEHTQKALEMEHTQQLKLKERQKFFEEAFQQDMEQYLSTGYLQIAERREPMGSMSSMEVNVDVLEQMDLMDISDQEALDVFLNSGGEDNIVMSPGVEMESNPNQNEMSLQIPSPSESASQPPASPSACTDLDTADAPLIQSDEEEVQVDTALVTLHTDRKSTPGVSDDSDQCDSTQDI

HA-tagged dysbindin-1C [4] = biological target: T2, HA-tagged dysbindin-1C; experiment: as above
[5] = biological target: T4, HA-dysbindin-1A (lentivirus, in cultured hippocampal neurons) (UniProt Q91WZ8); experiment: co-IP; cultured hippocampal neurons transduced with lentivirus expressing HA-dysbindin-1C or -1A; immunoprecipitation with an anti-HA antibody; endogenous Drp1 detected (Fig. 4H)
T4 sequence: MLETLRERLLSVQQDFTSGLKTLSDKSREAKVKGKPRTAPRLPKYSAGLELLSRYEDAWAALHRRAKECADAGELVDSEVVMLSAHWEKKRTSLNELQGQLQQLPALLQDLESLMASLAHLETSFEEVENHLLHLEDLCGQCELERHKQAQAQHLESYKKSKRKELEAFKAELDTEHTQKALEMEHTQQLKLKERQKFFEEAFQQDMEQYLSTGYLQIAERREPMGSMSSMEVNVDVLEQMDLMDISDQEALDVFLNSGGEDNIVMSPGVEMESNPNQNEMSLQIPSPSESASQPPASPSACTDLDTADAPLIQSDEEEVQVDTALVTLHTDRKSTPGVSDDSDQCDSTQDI

[6] = biological target: T5, HA-dysbindin-1C (lentivirus, in cultured hippocampal neurons) (UniProt Q91WZ8); experiment: as above
T5 sequence: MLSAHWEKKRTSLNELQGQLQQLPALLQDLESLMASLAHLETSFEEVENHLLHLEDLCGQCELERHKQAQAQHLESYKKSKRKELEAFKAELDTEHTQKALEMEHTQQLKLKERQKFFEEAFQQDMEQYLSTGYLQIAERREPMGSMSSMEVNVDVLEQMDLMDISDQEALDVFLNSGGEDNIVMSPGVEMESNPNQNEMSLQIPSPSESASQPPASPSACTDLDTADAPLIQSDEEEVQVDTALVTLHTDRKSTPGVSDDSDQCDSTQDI

[7] = biological target: endogenous Drp1 of cultured hippocampal neurons (not stated (rat or mouse neurons cultured)) (UniProt O35303); experiment: cross-linking; total lysates and mitochondrial fraction of cultured hippocampal neurons transduced with lentivirus (vector, dysbindin-1C, dysbindin-1A), crosslinked and separated by gel electrophoresis, blot for Drp1 monomer and higher-order oligomers; also after KCl (50 mM)
[8] = biological target: endogenous Drp1 of mouse hippocampus (mouse (endogenous in hippocampus)) (UniProt Q8K1M6); experiment: cross-linking; total lysates and mitochondrial fraction of the hippocampus or hippocampal slices of WT and sdy mice, crosslinked and separated by gel electrophoresis, blot for Drp1 monomer and higher-order oligomers; also after oligomycin (10 uM, 30 min) or CCH
HA-tagged dysbindin-1C [9] = biological target: T2, HA-tagged dysbindin-1C; experiment: co-IP; HEK-293 cells transfected with HA-tagged dysbindin-1C; immunoprecipitation with an anti-HA antibody 3 days later; blots for Mid49, Mid51 and Mff (Fig. 4L)
[10] = biological target: endogenous Drp1 of HEK-293 cells (human (endogenous in HEK-293)) (UniProt O00429); experiment: co-IP; HEK-293 cells transfected with the dysbindin-1C or dysbindin-1A plasmid or vector; endogenous Drp1 pulled down with the Drp1 antibody; blots for Mid49, Mid51 and Mff (Fig. 4M, N)
[11] = biological target: endogenous Drp1 of mouse hippocampus (mouse (endogenous in hippocampus)) (UniProt Q8K1M6); experiment: co-IP; lysate of the hippocampus of WT mice; immunoprecipitation with an anti-Drp1 antibody (Fig. 4I)

Drp1 (yeast two-hybrid fusion) (from UniProt O00429 1-736)
binding [1]: binds

Mid51 (yeast two-hybrid fusion) (from UniProt Q9NQG6 1-463)
binding [2]: binds | binding [1]: binds

YFP-Drp1 (from UniProt O00429 1-736)
binding (HA-tagged dysbindin-1C [3]): binds | binding (HA-tagged dysbindin-1A): no binding | binding (HA-tagged dysbindin-1C [4]): binds

endogenous Drp1 of cultured hippocampal neurons (from UniProt O35303 1-755)
binding [5]: no binding | binding [6]: binds | binding [7]: binds

endogenous Drp1 of mouse hippocampus (from UniProt Q8K1M6 1-736)
binding [8]: binds

mitochondrial dynamics protein of 51 kDa (Mid51), in HEK-293 cells (from UniProt Q9NQG6 1-463)
binding (HA-tagged dysbindin-1C [9]): binds

B1: Mid49 (yeast two-hybrid fusion) (protein, UniProt Q96C03 1-454)
chain: MAEFSQKRGKRRSDEGLGSMVDFLLANARLVLGVGGAAVLGIATLAVKRFIDRATSPRDEDDTKADSWKELSLLKATPHLQPRPPPAALSQPVLPLAPSSSAPEGPAETDPEVTPQLSSPAPLCLTLQERLLAFERDRVTIPAAQVALAKQLAGDIALELQAYFRSKFPELPFGAFVPGGPLYDGLQAGAADHVRLLVPLVLEPGLWSLVPGVDTVARDPRCWAVRRTQLEFCPRGSSPWDRFLVGGYLSSRVLLELLRKALAASVNWPAIGSLLGCLIRPSMASEELLLEVQHERLELTVAVLVAVPGVDADDRLLLAWPLEGLAGNLWLQDLYPVEAARLRALDDHDAGTRRRLLLLLCAVCRGCSALGQLGRGHLTQVVLRLGEDNVDWTEEALGERFLQALELLIGSLEQASLPCHFNPSVNLFSSLREEEIDDIGYALYSGLQEPEGLL
binding [2]: binds | binding [1]: binds

B2: mitochondrial dynamics protein of 49 kDa (Mid49), in HEK-293 cells (protein, UniProt Q96C03 1-454)
chain: MAEFSQKRGKRRSDEGLGSMVDFLLANARLVLGVGGAAVLGIATLAVKRFIDRATSPRDEDDTKADSWKELSLLKATPHLQPRPPPAALSQPVLPLAPSSSAPEGPAETDPEVTPQLSSPAPLCLTLQERLLAFERDRVTIPAAQVALAKQLAGDIALELQAYFRSKFPELPFGAFVPGGPLYDGLQAGAADHVRLLVPLVLEPGLWSLVPGVDTVARDPRCWAVRRTQLEFCPRGSSPWDRFLVGGYLSSRVLLELLRKALAASVNWPAIGSLLGCLIRPSMASEELLLEVQHERLELTVAVLVAVPGVDADDRLLLAWPLEGLAGNLWLQDLYPVEAARLRALDDHDAGTRRRLLLLLCAVCRGCSALGQLGRGHLTQVVLRLGEDNVDWTEEALGERFLQALELLIGSLEQASLPCHFNPSVNLFSSLREEEIDDIGYALYSGLQEPEGLL
binding (HA-tagged dysbindin-1C [9]): binds | binding [10]: binds

B3: endogenous dysbindin-1C of mouse hippocampus (protein, UniProt Q91WZ8-3 1-271)
chain: MLSAHWEKKRTSLNELQGQLQQLPALLQDLESLMASLAHLETSFEEVENHLLHLEDLCGQCELERHKQAQAQHLESYKKSKRKELEAFKAELDTEHTQKALEMEHTQQLKLKERQKFFEEAFQQDMEQYLSTGYLQIAERREPMGSMSSMEVNVDVLEQMDLMDISDQEALDVFLNSGGEDNIVMSPGVEMESNPNQNEMSLQIPSPSESASQPPASPSACTDLDTADAPLIQSDEEEVQVDTALVTLHTDRKSTPGVSDDSDQCDSTQDI
binding [11]: binds

B4: mitochondrial fission factor (Mff), in HEK-293 cells (protein, UniProt Q9GZY8 1-342)
chain: MSKGTSSDTSLGRVSRAAFPSPTAAEMAEISRIQYEMEYTEGISQRMRVPEKLKVAPPNADLEQGFQEGVPNASVIMQVPERIVVAGNNEDVSFSRPADLDLIQSTPFKPLALKTPPRVLTLSERPLDFLDLERPPTTPQNEEIRAVGRLKRERSMSENAVRQNGQLVRNDSLWHRSDSAPRNKISRFQAPISAPEYTVTPSPQQARVCPPHMLPEDGANLSSARGILSLIQSSTRRAYQQILDVLDENRRPVLRGGSAAATSNPHHDNVRYGISNIDTTIEGTSDDLTVVDAASLRRQIIKLNRRLQLLEEENKERAKREMVMYSITVAFWLLNSWLWFRR
binding (HA-tagged dysbindin-1C [9]): no binding

B5: Mff (yeast two-hybrid fusion) (protein, UniProt Q9GZY8 1-342)
chain: MSKGTSSDTSLGRVSRAAFPSPTAAEMAEISRIQYEMEYTEGISQRMRVPEKLKVAPPNADLEQGFQEGVPNASVIMQVPERIVVAGNNEDVSFSRPADLDLIQSTPFKPLALKTPPRVLTLSERPLDFLDLERPPTTPQNEEIRAVGRLKRERSMSENAVRQNGQLVRNDSLWHRSDSAPRNKISRFQAPISAPEYTVTPSPQQARVCPPHMLPEDGANLSSARGILSLIQSSTRRAYQQILDVLDENRRPVLRGGSAAATSNPHHDNVRYGISNIDTTIEGTSDDLTVVDAASLRRQIIKLNRRLQLLEEENKERAKREMVMYSITVAFWLLNSWLWFRR
binding [1]: no binding
